Read counts are not given, so values of variants with three or more changes are uncertain.
B1: OR4K15 (parent)
chain: GUUAACGGUCAUAGGCCAUGGAAACUAGGAGCACCAUUUCGCUGCCAGUGAAGAAAUGAACAAAGAAAAUCUGGGCCAGGCAGGCAUCAAAAGAAAUAGUCUUGCGCUCAACCAGAAAGUCUGUAAUCAUUUUAAGGGUA

Variants of: B1
Assay: self-cleavage, relative activity (ratio to wild type); higher = more cleavage; in vitro, sequencing; the parent is a self-cleaving ribozyme

Variant | self-cleavage
A52G A64G A126G A129U A135G | 0.18
U103C U108C A134G | 0.01
A22G U38A U120C U130C | 0.59
A22G A36G A56G A68G U87A | 0
A51G A63G U100C U133C | 2.35
G29A A78G A114U | 0.02
A56G A67G U72A A126G U130C A140G | 0.03
C34A A54G U70C A78U A126G A129G A135U | 0.05
U12C U43C A67G A135G U139A | 1.95
A59G A62G G73A A91G A118G | 0.03
U9A A59G A95U | 0.79
A69U C77U U103C | 0.24
A24G A36C A51G A66U U108C A117G | 0.02
U2C A62G A66G U103C | 0.71
U37A U38C A64C | 0.88
A51G A56G A64U U132C | 0.74
U70C G75A A110C | 0.03
A22G A86G A94G | 1.29
U49C A54G A59G A67G U132C | 1.45
A18G C88U U127C | 0.88
A4G A18G U100C | 1.41
U87C A110G A140G | 0.1
U43C A82G A96G A111C | 0.01
A5C A24U A51U | 0.5

Variant | self-cleavage
A60G A94G U108C A126G | 0
A5C G7A U37C A51G A110U G136A | 1.04
A62U A89G U127G | 1.78
U12C A86G G104A A135U | 0.04
A24U U38C A66G U103C G115A A118G | 0.07
U19A A22G A54U A68U | 1.82
U19C A91G A110G | 0.14
A33G U57C A82G | 0.2
A23G A78U U139C | 0.33
A24U U39C A52G | 1.07
U9C A51C A78G A114C U120C | 0.01
A23G U49A A86G A129U | 0.26
A30G G84A A92G A111G | 0.01
A52G A82U A94G U127C A135G | 0.01
U37C A62G A90U A118G | 2.25
U3C A18G A86G A110G U124C | 0.07
A24G A27U G48A | 1.35
A11G A23G A36G U37A A125G U130C | 0.34
A54G A55G A67G | 0.91
U127C A129G A140C | 0.26
A51G A69G U70C | 0.34
U37C U49C A51U U57C A63U C85U A96G U122A | 0.14
A13C A67G A68G A90G A140G | 1.08
A33G U37C A94G A129G | 0.6

Variant | self-cleavage
A13G G50A A56G A118G U130C | 0.33
A30G A55G A64G A135G | 1.44
U37C A110G A126G | 0.1
A64G A69U A90G U124A | 0.65
A78U A82U A86U | 0.15
A18G A64G U97C | 0.55
A36C U97C A114G | 0.32
A24G A47U U49C A67G U103C A110U | 0.24
A11G A33G A66G A82G | 0.38
A82U U108C U133C | 0.01
U9A A52G A90G | 0.36
A23G A94G G104A | 0.04
A23G U87C U130C | 0.18
A11G A55G A90G A116G | 0.62
A33G U37C A54U U100C | 1.97
U9C U100C U132C | 1.73
U12C U38C A90G | 1.12
A5G U9C A51U G53U | 1.44
A24G A64G A67U A86G A117G U139C | 1.45
U39A A47G A91C G93U U102A U130C | 0.08
A22U G44C A82U | 0.11
U49C A63G A140G | 0.59
C17U U26C A55U A62G A90G A92U | 1.07
U3A U57A A64G | 1.24

Variant | self-cleavage
U38A A67G A140C | 1.7
U2A C46U A116G A126G | 0.26
A33G U108C C113A | 0
A55C U108G U122A | 0.08
A11G U12A A13G | 0.98
A27G A118G U130C | 0.84
A62U U103A U108C A135G | 0.03
A55G A118G U120A U132C | 0.78
A56G A78G U103C | 0
A47U A117G U130C | 0.2
U37C A82G U120C | 0.13
A5G A13G U103C G136A | 0.21
U38C U87C U108C A116G | 0
U39C A55G A78G | 0.22
A33U A55G A59G U87A U108C | 0.01
U38C A67G A68G | 0.97
A23G A66C A68G U70A A118G U127C | 0.18
A33U A64G U97C | 1.18
U3C A47G A55G | 0.61
A5G A36G C113U | 0.18
A23G A47U A96G U108C A117G A140U | 0.02
A5C A51U A89G A117G A125U | 1.45
U19C A62U A67U | 1.81
A55G A91G A95G A118G | 1.6

Variant | self-cleavage
A5U U37C A59G U103C | 0.81
G1A U3C A56G A60G U122G | 2.91
A11U G44A A51G | 0.91
A5G G14U A18U A67G A92G U100A C128U | 0.35
A18U U43C A95G A110G | 0.17
U38C A51G A111G | 0.03
A94G A96G A126G U127C | 0.37
A52G A59G U100A | 0.16
U49C A82U A90G A116G | 0.04
A69G A78U A111G A117G | 0.01
A59G U70C U108C U120C | 0
A27G A52G U97C C105U A135U | 0.1
A23G G53U A96G C107U | 0.03
C6U U38C U120C | 0.68
U12C A68G A140G | 1.62
A36U A78G A96G A126U | 0.15
A30G U43C A96G A110G | 0.18
G65U C101A A114G | 0
U26C A96G A118G | 1.25
A66C G73U A98G U102A A126G | 0.07
A51G A67G A69G A117G U130G | 1.25
C17U A82G U102C A126G | 0.82
A23G U38C U72C U139C | 0.59
A23G A78G A96G | 0.23

Variant | self-cleavage
A52G A64G G73U A89G A116U | 0.02
A64U U87C A125G U133C | 0.66
A11U A24G A51U A94G A116C | 0.22
A18U A54G A60G U72A A78G C109U | 0.13
A67G A117G A129G U139C | 1.21
U87C U130A U139C | 0.35
A13U A63U A68C | 0.89
U57C A92G A94G U102C A126G | 1.45
U39A C46A A59G | 0.52
A95G A116U U139A | 0.87
G29A A63G A114G U120C | 0.06
A54G A68G U122C A135G | 0.32
G28A U49A A91G U108C | 0.01
U12A A18U A24G A27U U103G A114U A118U | 0.02
A55G A66G U72C U103C A114G | 1.17
A11G A23G A51G U108A A126G | 0.01
C10U U37C A68U | 1.29
A23G A36U A55G A118G U133C | 1.81
A54G A59G U108C | 0.03
A68G A78G A98U | 0.22
U72C A114C U127A | 0.02
A86U A98G U131C | 0.4
U2G A11G U39C A63G | 0.35
A59G A78U A91C U103C A111G | 0.02

Variant | self-cleavage
A18U A62G U97C | 1.89
A51U A52G A69G A78G | 0.13
A18U A52G A60G U122A | 1.04
U38C A59G A68G U102A U103C U108C | 0.03
A23G A52G A96C G136C A140G | 0.65
U12C A60G A92G | 1.45
A5U A62C A89G A140G | 1.44
A11C U49C U97A | 1.61
A30U A86U U127C | 1.62
A22C A62G A67G A68G A78G C121U | 0.4
G20A A55G A98G U102C | 1.5
A54G A55G U57C A63G U72A A92G A95G U103C A118G | 0.02
A11G A23G U37C U43C | 1.06
U26C A51U A114U | 0.09
U100C A116G U131C | 1.37
A22G A36G A118G | 0.75
U37C A92G A94G | 1.26
U37C A86G A126G | 1.13
U38C U43C A67G A111G U131C | 0.01
A66G U70C A78G A95G A116G U122C | 0.18
U3A A4G A5G A52G | 0.56
A18G A63G A67G | 0.81
U38A A111C U127C | 0.02
